# Source: the supplement of paper PMC3334620
# Over roughly 33,000 sequences, “E-score (-0.5 to 0.5)” has its median near -0.012; the highest 2% begin near 0.29. The list shows a part of the results.
# Biological target: T1, Ybr033w (UniProt P38073)
# T1 sequence: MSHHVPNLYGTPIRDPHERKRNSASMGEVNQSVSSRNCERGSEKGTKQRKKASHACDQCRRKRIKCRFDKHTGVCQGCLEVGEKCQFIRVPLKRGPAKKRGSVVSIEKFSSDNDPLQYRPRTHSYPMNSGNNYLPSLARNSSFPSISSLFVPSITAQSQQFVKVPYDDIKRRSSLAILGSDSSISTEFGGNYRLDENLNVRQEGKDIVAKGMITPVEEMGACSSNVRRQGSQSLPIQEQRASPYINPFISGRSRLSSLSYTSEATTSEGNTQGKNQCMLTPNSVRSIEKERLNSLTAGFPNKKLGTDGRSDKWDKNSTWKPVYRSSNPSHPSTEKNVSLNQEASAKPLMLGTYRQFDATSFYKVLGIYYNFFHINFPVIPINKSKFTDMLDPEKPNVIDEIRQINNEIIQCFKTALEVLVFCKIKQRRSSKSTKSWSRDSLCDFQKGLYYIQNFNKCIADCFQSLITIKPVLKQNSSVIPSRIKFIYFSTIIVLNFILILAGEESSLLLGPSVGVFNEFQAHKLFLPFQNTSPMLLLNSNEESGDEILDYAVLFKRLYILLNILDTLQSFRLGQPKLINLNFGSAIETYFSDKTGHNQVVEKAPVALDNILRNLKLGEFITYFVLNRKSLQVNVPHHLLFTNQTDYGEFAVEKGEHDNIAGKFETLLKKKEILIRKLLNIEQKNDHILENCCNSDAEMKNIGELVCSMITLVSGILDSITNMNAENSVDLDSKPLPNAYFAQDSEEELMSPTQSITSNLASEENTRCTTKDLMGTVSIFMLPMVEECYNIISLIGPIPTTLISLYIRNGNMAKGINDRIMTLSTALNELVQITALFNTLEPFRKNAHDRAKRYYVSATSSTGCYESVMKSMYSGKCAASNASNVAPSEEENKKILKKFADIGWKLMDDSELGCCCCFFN
# Experiment: PBM E-score (8-mer binding enrichment) (E-score (-0.5 to 0.5)); higher = stronger / more preferred TF binding; most listed sequences are background and not binding sites
# Conditions: protein concentration: 200 nM; construct: GST-full length
# Summary of the method: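 Universal all-10-mer Agilent arrays, double-stranded by primer extension on fresh or once-stripped slides, were probed with about 100-200 nM GST-tagged yeast transcription factors made by PURExpress. Fluorescent anti-GST detected bound protein, and masliner normalised the scans. E-scores from the Universal PBM Analysis Suite were given to each ungapped eight-base word pooled with its reverse complement.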
row,Sequence,PBM E-score
1,ACGCTGCT,-0.205
2,ACTAGCAC,-0.0462
3,CCGGTGAC,-0.192
4,ATTTTATA,0.309
5,AGTTGTAA,0.145
6,CTCCGATA,0.0359
7,AGCAATGG,-0.129
8,GCTTCTAC,0.0543
9,AGGACAGA,-0.0311
10,GACCAGTC,-0.0986
11,ATGGTGAG,-0.0822
12,GTGCGACA,-0.235
13,AGGAATGA,0.207
14,ACGCAAGT,-0.0108
15,AGTTAGTC,0.119
16,CATGGCAC,-0.195
17,CGCGGGAC,-0.12
18,CCACTCGA,-0.0674
19,AACATTGA,0.136
20,CGTGAGAA,-0.0558
21,CGTATCGA,-0.0271
22,CGTGGGCA,-0.176
23,CACTTCCG,-0.125
24,ACTTCCCG,0.137
25,AGTTAGGA,0.0659

row,Sequence,PBM E-score
1,GGCTAGTA,0.137
2,ACCCTCGT,-0.179
3,CATGGTAA,0.078
4,AATTGCGC,0.125
5,CTTTCCAC,0.0449
6,ACGTATAC,0.181
7,CAACAATA,0.151
8,ACCCCCCT,-0.376
9,AGGATTCA,0.114
10,TACTGTCA,0.00818
11,CTACCGAA,0.109
12,CTGGAGTC,-0.00104
13,CTCCAAGA,0.0931
14,CGCCTAAC,-0.0857
15,GCTAGTGA,0.13
16,AGTACCAC,-0.105
17,ACCCTCAT,-0.271
18,CGGCGCAG,-0.112
19,CCGGTTAG,-0.102
20,ATACTCCG,0.245
21,TAACAGGA,-0.0535
22,AACGAGTG,0.0515
23,CACGCATC,-0.0486
24,CGAAATGC,0.00684
25,GCCGATAC,-0.113

row,Sequence,PBM E-score
1,AACGTTCC,-0.0892
2,GGAGTTTA,0.246
3,CTTGAGAA,0.0578
4,ATTTCGTA,0.0835
5,ATACCAAA,0.128
6,CCGATTTC,-0.0712
7,AACTTCTC,0.103
8,CCCCGCCC,0.0342
9,ACAGATAG,-0.0808
10,ATGCACTC,-0.0897
11,GCTGGGTA,-0.15
12,CCATTGAG,0.0954
13,ACTTATGG,-0.0148
14,AACAGTAT,0.147
15,GTTGGACA,-0.0693
16,ATAGAAAG,0.0673
17,ATTTATTG,0.0954
18,ATACCGCG,0.00436
19,GAGCGCTC,-0.212
20,TACTATGA,0.199
21,AGTCGGAC,0.00348
22,GACCATCA,-0.0102
23,CAAGTTGA,0.113
24,CTGCCGCC,-0.325
25,GTTGCCTA,0.0283

row,Sequence,PBM E-score
1,AAAGTTAA,0.323
2,ACTTATAC,0.244
3,AACGGCAG,-0.0412
4,AAGTAAGT,0.118
5,GATCTCGC,0.017
6,CAATTCTC,0.0403
7,ATTGTGTC,0.179
8,CCCATAAG,-0.165
9,AATGGCTA,0.12
10,ACCCTAGG,-0.0462
11,AGCCTCCT,-0.17
12,CCAAAAGA,0.206
13,GGGTATGA,0.0197
14,GTTAGCAA,0.233
15,CACCGACG,-0.0189
16,AGGCGAGC,-0.174
17,ATATCCAC,0.145
18,AAATGAGC,0.0658
19,AGGCGTAT,0.179
20,ATTCGGCG,0.0307
21,CGTACCTC,-0.0947
22,GGCGAACA,-0.192
23,CAACGCAA,0.0507
24,GCTAACAC,0.0723
25,CGTCGTCC,-0.226

row,Sequence,PBM E-score
1,CCCGGCGG,-0.24
2,ACATGGGG,-0.0856
3,ACTAATTA,0.281
4,GCCGATCA,-0.0313
5,GATTCGAA,0.199
6,ACCGGGCT,-0.155
7,AGATACAC,0.108
8,CATCACAC,0.13
9,AGATTGCT,0.0604
10,CACCATCC,-0.132
11,GAACAATC,0.323
12,AAATCAGC,0.131
13,GTTGAATA,0.21
14,AGTGATGC,0.115
15,CTTCGCCC,-0.143
16,CATGCAGG,-0.209
17,AGTTCCTC,-0.0855
18,CCAACCGG,-0.108
19,ATAGACAC,0.082
20,TGGACCAA,0.0158
21,ATATGGGG,-0.233
22,AAGAAGTA,0.0474
23,AAGATACA,0.203
24,GGTCTGTA,0.0247
25,CAGTCCCC,-0.25

row,Sequence,PBM E-score
1,ATGGGGGC,-0.349
2,CACCAAGC,-0.106
3,AGAGAGCG,-0.192
4,ACTAGACG,0.0224
5,CACAAATG,0.0361
6,CAACGGAA,0.0665
7,GCGGACCC,-0.301
8,GTACGGCA,-0.117
9,ACCGGCAT,0.0252
10,CCAGTGAC,-0.172
11,ATATGAAC,0.0921
12,GTCACGGA,-0.108
13,CAGATTGG,-0.153
14,GTCCGGCA,-0.11
15,AAGGCGAA,-0.0953
16,ACGTTTTC,0.0042
17,AAGAATTC,0.0133
18,GTCTGAAC,0.0247
19,AGGCAACC,-0.0913
20,ATTAAAAA,0.297
21,TCGTGAGA,-0.108
22,AACCAGGC,-0.086
23,CTCGCACC,-0.203
24,AAAGGCGC,-0.197
25,TCAAGTCA,0.104

row,Sequence,PBM E-score
1,TCCATGCA,0.0976
2,AGCACGCT,-0.256
3,ACTCTACA,-0.0448
4,CACTCCGA,-0.0716
5,ACGAAGGA,-0.0199
6,ACTGTAGG,0.158
7,TCATTAAA,0.319
8,CTTACGTC,-0.0834
9,AAAGGTCG,-0.228
10,GTTATGGA,0.108
11,CTTAGTAA,0.134
12,TCTTAAAA,0.153
13,GAATAGCC,-0.0559
14,GAAGGACC,-0.204
15,ACGGCGTG,0.0382
16,AGTGGTTG,0.117
17,CGAGTTTC,0.1
18,AATAGGCA,0.146
19,GAGGCTAC,-0.271
20,ATGAACAA,0.239
21,AACAGCGA,-0.176
22,AGCTGTAT,-0.031
